Experimental data reported in PMC4695013.
These are yes or no findings as the source states them, for the method shown. In cells and extracts the contact can be indirect. Some entries that bind do so weakly or less than the wild type. For some assays here: Where a sequence is shown, tags or fusion partners need not be part of it.

Amino acid sequences for entries named in this document (tags omitted).
UniProt Q8K4B0: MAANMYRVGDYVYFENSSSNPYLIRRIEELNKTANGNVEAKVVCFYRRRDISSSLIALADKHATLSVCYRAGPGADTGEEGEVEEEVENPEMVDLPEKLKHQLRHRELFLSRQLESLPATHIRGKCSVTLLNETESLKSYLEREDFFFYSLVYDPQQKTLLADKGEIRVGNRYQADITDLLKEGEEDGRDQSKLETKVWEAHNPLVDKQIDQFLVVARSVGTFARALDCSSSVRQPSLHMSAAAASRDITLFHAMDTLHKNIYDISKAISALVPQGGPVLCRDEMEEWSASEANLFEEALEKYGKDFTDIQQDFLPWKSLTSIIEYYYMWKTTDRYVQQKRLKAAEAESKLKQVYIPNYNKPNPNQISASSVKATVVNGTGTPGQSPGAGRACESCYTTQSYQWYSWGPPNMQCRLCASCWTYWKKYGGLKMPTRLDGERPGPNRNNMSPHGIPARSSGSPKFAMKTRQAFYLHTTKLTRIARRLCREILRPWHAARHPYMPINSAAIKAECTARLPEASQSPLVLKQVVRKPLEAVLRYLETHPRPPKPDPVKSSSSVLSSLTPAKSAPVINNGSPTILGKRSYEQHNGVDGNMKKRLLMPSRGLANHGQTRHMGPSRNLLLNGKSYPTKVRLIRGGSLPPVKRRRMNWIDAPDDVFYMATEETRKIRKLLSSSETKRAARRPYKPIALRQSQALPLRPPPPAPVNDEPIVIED
UniProt P09874: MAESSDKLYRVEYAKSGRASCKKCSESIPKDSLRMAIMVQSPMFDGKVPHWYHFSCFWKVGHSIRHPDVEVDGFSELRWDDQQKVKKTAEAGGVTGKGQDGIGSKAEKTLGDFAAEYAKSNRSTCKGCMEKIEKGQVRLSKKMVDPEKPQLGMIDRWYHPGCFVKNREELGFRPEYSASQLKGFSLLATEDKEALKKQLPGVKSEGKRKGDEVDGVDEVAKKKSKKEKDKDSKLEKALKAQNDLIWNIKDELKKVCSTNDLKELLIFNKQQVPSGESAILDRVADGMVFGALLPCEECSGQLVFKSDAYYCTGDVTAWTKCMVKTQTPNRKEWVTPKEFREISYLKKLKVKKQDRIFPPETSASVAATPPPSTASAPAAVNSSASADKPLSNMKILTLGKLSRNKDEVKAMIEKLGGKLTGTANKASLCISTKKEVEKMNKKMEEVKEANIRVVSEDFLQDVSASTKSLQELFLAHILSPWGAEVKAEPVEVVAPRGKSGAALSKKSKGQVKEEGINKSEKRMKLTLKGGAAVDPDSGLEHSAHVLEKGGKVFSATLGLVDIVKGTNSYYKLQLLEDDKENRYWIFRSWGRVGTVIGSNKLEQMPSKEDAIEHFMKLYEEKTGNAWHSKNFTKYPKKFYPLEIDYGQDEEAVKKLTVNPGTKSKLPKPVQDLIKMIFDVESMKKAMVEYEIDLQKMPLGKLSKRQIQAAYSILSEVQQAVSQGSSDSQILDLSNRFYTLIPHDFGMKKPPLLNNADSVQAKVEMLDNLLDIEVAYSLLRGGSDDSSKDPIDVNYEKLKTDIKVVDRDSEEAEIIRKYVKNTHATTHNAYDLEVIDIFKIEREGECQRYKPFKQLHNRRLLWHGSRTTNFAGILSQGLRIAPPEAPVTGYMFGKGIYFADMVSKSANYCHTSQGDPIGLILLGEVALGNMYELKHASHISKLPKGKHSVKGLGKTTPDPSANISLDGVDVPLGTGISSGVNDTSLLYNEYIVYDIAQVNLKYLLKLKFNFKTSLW
UniProt Q8TDI0: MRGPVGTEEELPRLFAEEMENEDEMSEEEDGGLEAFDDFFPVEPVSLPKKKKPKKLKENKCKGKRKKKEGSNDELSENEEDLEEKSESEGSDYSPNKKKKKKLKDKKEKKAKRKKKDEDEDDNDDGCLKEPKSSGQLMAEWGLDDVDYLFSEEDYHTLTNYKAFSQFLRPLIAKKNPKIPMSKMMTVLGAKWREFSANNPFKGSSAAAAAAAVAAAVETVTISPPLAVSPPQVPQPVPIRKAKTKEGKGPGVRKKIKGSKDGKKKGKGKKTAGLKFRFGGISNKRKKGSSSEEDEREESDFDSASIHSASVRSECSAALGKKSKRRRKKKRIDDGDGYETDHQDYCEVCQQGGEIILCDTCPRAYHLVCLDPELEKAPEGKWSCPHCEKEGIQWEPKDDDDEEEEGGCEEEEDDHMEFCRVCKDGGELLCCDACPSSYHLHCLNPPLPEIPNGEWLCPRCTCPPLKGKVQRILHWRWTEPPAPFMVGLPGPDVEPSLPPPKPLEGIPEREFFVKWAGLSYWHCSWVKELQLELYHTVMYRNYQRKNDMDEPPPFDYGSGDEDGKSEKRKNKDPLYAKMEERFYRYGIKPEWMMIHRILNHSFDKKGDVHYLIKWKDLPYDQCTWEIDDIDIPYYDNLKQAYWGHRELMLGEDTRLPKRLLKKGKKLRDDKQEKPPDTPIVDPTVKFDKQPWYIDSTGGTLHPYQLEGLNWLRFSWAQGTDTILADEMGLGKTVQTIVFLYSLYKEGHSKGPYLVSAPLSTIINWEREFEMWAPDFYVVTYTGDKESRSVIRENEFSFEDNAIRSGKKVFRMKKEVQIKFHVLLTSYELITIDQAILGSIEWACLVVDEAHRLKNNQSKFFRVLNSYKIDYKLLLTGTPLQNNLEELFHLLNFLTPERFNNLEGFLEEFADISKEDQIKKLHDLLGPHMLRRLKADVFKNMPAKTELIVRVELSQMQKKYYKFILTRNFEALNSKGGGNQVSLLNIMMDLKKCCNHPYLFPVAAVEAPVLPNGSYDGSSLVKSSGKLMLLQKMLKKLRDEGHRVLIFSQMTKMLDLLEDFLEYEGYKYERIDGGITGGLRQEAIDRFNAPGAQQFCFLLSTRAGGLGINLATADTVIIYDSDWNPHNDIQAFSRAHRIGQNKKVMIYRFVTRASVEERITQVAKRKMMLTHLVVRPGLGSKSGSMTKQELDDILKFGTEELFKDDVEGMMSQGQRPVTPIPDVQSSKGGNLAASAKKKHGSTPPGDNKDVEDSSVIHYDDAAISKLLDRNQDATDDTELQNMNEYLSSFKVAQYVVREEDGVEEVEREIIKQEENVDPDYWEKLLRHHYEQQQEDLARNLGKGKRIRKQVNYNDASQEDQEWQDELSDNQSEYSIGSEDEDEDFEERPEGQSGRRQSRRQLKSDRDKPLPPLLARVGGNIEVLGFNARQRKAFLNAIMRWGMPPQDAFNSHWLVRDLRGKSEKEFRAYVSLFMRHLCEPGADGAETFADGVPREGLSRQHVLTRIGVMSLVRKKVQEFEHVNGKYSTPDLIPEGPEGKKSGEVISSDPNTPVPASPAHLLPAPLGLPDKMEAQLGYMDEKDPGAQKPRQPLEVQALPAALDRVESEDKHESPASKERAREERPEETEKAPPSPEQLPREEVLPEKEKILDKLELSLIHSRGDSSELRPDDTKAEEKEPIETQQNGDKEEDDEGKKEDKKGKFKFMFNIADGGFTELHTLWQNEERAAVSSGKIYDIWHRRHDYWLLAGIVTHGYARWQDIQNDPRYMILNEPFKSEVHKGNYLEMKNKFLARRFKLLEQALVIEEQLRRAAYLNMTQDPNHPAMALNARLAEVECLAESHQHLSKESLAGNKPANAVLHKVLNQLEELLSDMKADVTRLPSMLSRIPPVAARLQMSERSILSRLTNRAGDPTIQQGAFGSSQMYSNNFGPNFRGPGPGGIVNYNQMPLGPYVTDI
UniProt P27694: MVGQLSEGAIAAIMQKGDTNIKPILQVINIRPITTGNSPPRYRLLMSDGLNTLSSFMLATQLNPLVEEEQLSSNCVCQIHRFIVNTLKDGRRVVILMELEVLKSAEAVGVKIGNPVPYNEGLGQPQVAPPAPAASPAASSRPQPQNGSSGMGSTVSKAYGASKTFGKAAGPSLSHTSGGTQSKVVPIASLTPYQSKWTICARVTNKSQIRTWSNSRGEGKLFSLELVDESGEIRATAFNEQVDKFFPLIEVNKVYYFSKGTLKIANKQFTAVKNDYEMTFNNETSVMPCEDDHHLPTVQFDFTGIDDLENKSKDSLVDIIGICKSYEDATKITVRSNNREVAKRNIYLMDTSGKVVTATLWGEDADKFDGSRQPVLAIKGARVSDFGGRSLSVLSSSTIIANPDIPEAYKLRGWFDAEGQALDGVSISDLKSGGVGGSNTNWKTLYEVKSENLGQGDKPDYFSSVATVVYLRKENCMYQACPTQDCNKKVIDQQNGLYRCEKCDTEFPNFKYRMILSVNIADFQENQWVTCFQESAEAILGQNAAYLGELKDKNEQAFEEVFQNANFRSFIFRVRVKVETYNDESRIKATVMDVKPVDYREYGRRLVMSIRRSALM
UniProt P13010: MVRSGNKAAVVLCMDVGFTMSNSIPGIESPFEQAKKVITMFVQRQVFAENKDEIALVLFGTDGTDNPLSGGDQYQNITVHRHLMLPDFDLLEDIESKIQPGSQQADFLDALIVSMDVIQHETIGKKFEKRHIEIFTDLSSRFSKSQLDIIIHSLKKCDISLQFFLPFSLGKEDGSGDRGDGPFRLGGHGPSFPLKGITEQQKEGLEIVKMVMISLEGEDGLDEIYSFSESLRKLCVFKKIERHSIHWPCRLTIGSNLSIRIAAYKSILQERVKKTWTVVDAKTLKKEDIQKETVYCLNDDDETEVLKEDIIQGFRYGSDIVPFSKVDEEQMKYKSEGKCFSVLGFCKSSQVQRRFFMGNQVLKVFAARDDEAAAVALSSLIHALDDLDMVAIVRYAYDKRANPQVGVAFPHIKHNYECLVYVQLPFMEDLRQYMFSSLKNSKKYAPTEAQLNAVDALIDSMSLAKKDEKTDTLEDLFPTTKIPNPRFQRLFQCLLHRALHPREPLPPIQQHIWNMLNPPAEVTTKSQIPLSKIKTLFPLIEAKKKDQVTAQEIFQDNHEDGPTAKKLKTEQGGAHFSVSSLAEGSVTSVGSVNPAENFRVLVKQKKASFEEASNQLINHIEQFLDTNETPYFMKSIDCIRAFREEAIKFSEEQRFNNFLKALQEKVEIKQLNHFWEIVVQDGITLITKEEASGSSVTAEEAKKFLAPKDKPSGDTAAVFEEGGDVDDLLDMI
UniProt Q92769: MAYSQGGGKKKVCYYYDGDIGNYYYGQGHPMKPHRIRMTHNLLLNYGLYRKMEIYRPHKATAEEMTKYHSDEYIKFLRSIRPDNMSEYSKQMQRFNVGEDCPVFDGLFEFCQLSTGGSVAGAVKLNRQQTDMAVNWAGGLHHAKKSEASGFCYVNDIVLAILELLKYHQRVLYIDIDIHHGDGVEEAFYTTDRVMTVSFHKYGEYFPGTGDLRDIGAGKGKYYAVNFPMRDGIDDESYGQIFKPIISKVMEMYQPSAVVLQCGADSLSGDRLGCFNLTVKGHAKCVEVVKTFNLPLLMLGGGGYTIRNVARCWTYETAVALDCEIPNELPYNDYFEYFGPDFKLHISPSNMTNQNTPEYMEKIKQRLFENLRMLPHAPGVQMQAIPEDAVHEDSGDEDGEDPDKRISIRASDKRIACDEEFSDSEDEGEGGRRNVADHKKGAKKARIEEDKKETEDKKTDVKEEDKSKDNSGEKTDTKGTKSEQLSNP
UniProt P12956: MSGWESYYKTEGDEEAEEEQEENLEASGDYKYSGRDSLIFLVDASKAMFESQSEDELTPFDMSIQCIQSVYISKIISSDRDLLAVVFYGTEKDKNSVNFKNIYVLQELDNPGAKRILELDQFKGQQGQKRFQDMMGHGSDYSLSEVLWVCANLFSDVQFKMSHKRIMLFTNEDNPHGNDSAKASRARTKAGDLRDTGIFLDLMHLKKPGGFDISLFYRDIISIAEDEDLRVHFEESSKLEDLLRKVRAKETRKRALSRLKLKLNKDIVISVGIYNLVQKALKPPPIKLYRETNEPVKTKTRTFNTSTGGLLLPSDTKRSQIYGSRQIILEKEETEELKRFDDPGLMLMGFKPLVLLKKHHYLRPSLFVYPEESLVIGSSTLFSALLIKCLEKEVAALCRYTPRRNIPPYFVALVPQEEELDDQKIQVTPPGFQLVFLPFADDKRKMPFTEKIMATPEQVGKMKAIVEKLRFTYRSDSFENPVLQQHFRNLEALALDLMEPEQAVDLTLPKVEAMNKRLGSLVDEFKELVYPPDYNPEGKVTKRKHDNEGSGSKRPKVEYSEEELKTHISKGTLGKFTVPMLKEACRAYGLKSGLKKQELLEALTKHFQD

T1: 1xFLAG-CASZ1b (human) (UniProt Q86V15)
T1 sequence: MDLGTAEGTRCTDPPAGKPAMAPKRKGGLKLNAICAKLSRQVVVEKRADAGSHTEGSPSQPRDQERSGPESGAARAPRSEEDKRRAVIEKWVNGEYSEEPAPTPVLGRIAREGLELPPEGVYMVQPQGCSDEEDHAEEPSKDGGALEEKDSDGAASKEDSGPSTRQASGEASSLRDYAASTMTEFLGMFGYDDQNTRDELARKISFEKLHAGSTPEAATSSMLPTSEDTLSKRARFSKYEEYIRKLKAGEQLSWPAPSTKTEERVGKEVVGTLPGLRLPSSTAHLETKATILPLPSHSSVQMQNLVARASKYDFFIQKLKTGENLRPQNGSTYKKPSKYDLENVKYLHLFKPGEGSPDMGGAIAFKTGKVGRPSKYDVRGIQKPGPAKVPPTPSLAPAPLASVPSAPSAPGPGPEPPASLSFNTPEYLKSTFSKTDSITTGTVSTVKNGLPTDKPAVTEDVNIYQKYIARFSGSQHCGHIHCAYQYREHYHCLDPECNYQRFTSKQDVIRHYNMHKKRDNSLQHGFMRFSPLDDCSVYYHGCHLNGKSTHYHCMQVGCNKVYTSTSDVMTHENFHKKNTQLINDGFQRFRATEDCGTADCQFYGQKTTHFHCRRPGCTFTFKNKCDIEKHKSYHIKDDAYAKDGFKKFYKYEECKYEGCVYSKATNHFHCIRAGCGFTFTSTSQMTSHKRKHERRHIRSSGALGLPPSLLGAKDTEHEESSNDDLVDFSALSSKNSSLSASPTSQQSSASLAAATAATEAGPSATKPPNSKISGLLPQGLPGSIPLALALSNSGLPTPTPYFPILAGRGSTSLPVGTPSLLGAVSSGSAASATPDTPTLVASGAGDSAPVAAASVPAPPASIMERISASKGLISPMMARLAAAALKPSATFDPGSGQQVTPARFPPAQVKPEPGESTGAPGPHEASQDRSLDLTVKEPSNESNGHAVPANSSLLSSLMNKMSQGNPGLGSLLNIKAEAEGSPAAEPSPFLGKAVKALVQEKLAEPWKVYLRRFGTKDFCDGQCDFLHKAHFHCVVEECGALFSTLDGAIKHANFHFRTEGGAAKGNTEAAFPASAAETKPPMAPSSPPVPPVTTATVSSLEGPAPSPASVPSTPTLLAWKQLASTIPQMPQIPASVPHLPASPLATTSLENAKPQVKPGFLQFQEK


What was measured:
[1] = target: FLAG-CASZ1a (SY5Y-FLAG-CASZ1a) (human) (UniProt Q86V15); assay: co-IP; SY5Y cells stably transfected with tetracycline inducible FLAG-CASZ1b or FLAG-CASZ1a, with or without 1 μg/μl tetracycline for 24 hr; anti-FLAG co-IP, western blot
[2] = target: T1, 1xFLAG-CASZ1b (human); assay: co-IP; HEK293T transiently transfected with 1xFLAG-CASZ1b, its mutants or empty vector; whole cell extract (200 mM NaCl, 1% Triton X-100, benzonase), ANTI-FLAG M2 magnetic beads 4 hr at 4°C, western blot; in Figure 6B with or without PARP inhibitor AZD2281 (50 μM, 24 hr)
[3] = target: PARP1 (mouse ES cells) (mouse (endogenous in mES cells)) (UniProt P11103); assay: co-IP; endogenous proteins, mouse ES cell extract; anti-MTA1 or anti-PARP1 antibody on Dynabeads, blot probed with anti-CASZ1
[4] = target: MTA1 (mouse ES cells) (mouse (endogenous in mES cells)) (UniProt Q8K4B0); assay: as above
[5] = target: PARP1 (HEK293T) (human (endogenous in HEK293T)) (UniProt P09874); assay: co-IP; endogenous proteins, HEK293T whole cell extract; anti-MTA1 or anti-PARP1 antibody on Dynabeads, blot probed with anti-CASZ1
[6] = target: MTA1 (HEK293T) (human (endogenous in HEK293T)) (UniProt Q13330); assay: as above
[7] = target: PARP1 (HEK293T) (human (endogenous in HEK293T)) (UniProt P09874); assay: co-IP; HEK293T transfected with FLAG-CASZ1b or empty vector, with or without PARP inhibitor AZD2281 (50 μM, 24 hr); co-IP with anti-PARP1 antibody, blot probed for CASZ1b

| binding [2] | further results | Molecule |
| --- | --- | --- |
|  | binding [1]: binds | CHD5 (SY5Y) (from UniProt Q8TDI0 1-1954) |
| binds |  | RPA1 (HEK293T) (from UniProt P27694 1-616) |
| binds |  | XRCC5 (HEK293T) (from UniProt P13010 1-732) |
|  | binding [3]: binds; binding [4]: binds | endogenous CASZ1 (mouse ES cells) (from UniProt Q9CWL2 1-1761) |
| binds |  | HDAC1 (HEK293T) (from UniProt Q13547 1-482) |
| binds |  | HDAC2 (HEK293T) (from UniProt Q92769 1-488) |
| binds |  | PARP1 (HEK293T) (from UniProt P09874 1-1014) |
|  | binding [1]: binds | XRCC5 (SY5Y) (from UniProt P13010 1-732) |
| binds |  | XRCC6 (HEK293T) (from UniProt P12956 1-609) |
| binds |  | Gatad2b (HEK293T) (from UniProt Q8WXI9 1-593) |
|  | binding [5]: binds; binding [6]: binds | endogenous CASZ1 (HEK293T) (from UniProt Q86V15 1-1759) |
|  | binding [7]: binds | 1xFLAG-CASZ1b (protein, UniProt Q86V15-2 1-1166) MDLGTAEGTRCTDPPAGKPAMAPKRKGGLKLNAICAKLSRQVVVEKRADAGSHTEGSPSQPRDQERSGPESGAARAPRSEEDKRRAVIEKWVNGEYSEEPAPTPVLGRIAREGLELPPEGVYMVQPQGCSDEEDHAEEPSKDGGALEEKDSDGAASKEDSGPSTRQASGEASSLRDYAASTMTEFLGMFGYDDQNTRDELARKISFEKLHAGSTPEAATSSMLPTSEDTLSKRARFSKYEEYIRKLKAGEQLSWPAPSTKTEERVGKEVVGTLPGLRLPSSTAHLETKATILPLPSHSSVQMQNLVARASKYDFFIQKLKTGENLRPQNGSTYKKPSKYDLENVKYLHLFKPGEGSPDMGGAIAFKTGKVGRPSKYDVRGIQKPGPAKVPPTPSLAPAPLASVPSAPSAPGPGPEPPASLSFNTPEYLKSTFSKTDSITTGTVSTVKNGLPTDKPAVTEDVNIYQKYIARFSGSQHCGHIHCAYQYREHYHCLDPECNYQRFTSKQDVIRHYNMHKKRDNSLQHGFMRFSPLDDCSVYYHGCHLNGKSTHYHCMQVGCNKVYTSTSDVMTHENFHKKNTQLINDGFQRFRATEDCGTADCQFYGQKTTHFHCRRPGCTFTFKNKCDIEKHKSYHIKDDAYAKDGFKKFYKYEECKYEGCVYSKATNHFHCIRAGCGFTFTSTSQMTSHKRKHERRHIRSSGALGLPPSLLGAKDTEHEESSNDDLVDFSALSSKNSSLSASPTSQQSSASLAAATAATEAGPSATKPPNSKISGLLPQGLPGSIPLALALSNSGLPTPTPYFPILAGRGSTSLPVGTPSLLGAVSSGSAASATPDTPTLVASGAGDSAPVAAASVPAPPASIMERISASKGLISPMMARLAAAALKPSATFDPGSGQQVTPARFPPAQVKPEPGESTGAPGPHEASQDRSLDLTVKEPSNESNGHAVPANSSLLSSLMNKMSQGNPGLGSLLNIKAEAEGSPAAEPSPFLGKAVKALVQEKLAEPWKVYLRRFGTKDFCDGQCDFLHKAHFHCVVEECGALFSTLDGAIKHANFHFRTEGGAAKGNTEAAFPASAAETKPPMAPSSPPVPPVTTATVSSLEGPAPSPASVPSTPTLLAWKQLASTIPQMPQIPASVPHLPASPLATTSLENAKPQVKPGFLQFQEK |
